Paper PMC3517901
Results are given in words; binding and its absence hold for the method and conditions named. In cells and extracts the contact can be indirect. Some entries that bind do so weakly or less than the wild type. For part of these data: Tags and fused reporters may be left off the sequences shown. Values belong to the substance of their own block, whether it stands above or below them.

Protein sequences, listed by entry. Tags and fused reporters are not part of them. Lines headed by an entry give the natural chain unless they say otherwise; changes in a name come on top. Chains listed by the source or under a name are the forms on record and can include a tag or linker. Residues count along the entry.
UniProt P49815: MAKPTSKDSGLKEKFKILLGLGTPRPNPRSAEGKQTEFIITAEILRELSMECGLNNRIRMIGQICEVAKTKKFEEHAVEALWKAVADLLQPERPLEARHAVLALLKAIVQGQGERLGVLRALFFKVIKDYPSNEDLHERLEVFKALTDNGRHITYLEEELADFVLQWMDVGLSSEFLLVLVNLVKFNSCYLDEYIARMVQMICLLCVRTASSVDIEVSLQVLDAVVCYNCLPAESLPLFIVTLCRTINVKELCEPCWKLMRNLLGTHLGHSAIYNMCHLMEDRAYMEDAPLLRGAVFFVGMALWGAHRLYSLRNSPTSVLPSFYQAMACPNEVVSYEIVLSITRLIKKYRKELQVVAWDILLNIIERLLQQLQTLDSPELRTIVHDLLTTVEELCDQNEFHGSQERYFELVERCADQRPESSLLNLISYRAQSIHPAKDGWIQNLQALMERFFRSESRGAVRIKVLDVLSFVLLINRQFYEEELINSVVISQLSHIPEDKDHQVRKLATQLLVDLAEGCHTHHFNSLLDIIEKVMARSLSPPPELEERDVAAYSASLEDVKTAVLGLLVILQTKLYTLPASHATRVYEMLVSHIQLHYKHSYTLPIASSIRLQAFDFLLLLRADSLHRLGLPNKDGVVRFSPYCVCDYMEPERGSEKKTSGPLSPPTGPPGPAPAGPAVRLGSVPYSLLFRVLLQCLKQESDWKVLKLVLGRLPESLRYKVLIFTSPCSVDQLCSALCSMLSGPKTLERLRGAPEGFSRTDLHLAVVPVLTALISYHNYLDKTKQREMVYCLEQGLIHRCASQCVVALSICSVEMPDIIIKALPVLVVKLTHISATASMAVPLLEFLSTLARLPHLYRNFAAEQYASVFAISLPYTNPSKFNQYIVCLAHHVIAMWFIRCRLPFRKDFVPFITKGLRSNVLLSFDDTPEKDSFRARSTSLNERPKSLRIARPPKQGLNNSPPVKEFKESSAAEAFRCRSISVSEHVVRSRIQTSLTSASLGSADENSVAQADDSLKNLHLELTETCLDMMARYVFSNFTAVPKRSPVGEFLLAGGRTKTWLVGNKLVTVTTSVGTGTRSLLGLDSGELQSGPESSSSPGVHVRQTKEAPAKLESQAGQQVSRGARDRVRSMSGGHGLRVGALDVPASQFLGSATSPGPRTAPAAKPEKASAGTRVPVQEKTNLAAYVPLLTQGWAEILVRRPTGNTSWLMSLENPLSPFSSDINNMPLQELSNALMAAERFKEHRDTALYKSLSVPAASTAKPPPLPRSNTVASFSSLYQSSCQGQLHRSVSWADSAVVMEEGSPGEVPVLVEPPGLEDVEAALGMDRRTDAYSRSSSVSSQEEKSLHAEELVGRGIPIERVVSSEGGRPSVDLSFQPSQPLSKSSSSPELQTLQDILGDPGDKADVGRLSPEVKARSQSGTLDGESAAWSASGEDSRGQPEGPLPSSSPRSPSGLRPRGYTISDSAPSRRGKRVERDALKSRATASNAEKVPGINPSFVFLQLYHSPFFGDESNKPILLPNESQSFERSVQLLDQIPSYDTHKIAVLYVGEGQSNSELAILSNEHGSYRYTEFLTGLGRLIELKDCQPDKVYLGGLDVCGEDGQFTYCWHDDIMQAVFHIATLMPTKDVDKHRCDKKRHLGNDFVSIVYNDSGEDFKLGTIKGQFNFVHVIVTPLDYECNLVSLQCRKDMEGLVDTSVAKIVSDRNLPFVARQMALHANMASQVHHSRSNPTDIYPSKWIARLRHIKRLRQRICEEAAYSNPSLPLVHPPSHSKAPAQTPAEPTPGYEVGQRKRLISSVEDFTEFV
TSC2 A1153V5 (TSC2 amino acids 1-1153): residues 1-1153 of P49815
TSC2 F904V5 (TSC2 amino acids 1-904): residues 1-904 of P49815
TSC2 A614V5 (TSC2 amino acids 1-614): residues 1-614 of P49815
TSC2 M1453V5 (TSC2 amino acids 1453-1784): residues 1476-1807 of P49815
TSC2, untagged, full-length (transfected) (P49815-4, form named): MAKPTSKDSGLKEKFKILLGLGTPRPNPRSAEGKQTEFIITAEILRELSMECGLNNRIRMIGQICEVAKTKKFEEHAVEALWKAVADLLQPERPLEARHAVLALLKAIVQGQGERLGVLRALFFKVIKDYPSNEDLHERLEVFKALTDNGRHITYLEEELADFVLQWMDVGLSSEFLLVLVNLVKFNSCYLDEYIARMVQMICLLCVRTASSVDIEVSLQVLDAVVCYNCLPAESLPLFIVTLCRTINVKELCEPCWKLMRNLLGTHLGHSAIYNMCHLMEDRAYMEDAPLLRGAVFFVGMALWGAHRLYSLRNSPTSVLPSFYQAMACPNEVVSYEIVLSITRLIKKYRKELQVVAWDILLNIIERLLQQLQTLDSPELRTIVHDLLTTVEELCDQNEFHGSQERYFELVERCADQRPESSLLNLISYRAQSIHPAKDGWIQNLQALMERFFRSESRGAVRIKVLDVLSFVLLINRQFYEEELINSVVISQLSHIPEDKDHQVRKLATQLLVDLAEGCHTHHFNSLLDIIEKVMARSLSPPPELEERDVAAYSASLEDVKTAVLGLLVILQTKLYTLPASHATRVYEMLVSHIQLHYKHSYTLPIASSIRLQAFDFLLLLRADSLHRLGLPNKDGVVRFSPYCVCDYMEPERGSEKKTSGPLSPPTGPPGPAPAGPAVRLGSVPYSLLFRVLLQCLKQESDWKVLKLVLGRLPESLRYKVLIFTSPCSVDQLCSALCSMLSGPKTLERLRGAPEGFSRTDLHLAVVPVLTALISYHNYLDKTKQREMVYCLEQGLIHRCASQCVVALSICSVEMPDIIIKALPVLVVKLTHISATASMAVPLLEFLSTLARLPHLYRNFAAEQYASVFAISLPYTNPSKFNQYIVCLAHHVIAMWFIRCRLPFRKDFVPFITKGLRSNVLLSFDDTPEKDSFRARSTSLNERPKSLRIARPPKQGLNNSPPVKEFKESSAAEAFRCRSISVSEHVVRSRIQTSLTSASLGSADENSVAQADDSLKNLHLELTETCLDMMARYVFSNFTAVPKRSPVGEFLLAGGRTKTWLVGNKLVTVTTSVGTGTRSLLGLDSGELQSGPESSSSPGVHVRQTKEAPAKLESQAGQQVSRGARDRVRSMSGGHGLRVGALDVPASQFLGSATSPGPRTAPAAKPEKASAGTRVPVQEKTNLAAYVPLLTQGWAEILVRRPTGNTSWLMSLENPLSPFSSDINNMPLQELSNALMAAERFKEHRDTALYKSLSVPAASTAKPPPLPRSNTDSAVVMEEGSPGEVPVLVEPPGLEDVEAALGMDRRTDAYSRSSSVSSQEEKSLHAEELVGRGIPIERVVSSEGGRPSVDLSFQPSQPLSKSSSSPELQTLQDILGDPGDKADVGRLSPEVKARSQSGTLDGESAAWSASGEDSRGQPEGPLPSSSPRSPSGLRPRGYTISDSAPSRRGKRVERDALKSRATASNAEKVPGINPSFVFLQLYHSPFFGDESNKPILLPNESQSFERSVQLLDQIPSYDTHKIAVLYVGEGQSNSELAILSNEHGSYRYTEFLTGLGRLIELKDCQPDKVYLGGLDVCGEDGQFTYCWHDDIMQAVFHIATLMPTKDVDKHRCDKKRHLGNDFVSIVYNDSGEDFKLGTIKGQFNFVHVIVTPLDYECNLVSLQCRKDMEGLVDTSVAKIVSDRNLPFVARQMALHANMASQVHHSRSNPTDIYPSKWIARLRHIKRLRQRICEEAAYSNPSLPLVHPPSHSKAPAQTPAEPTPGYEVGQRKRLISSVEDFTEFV
GFPTSC2 containing the R905Q pathogenic substitution (P49815-4, form named): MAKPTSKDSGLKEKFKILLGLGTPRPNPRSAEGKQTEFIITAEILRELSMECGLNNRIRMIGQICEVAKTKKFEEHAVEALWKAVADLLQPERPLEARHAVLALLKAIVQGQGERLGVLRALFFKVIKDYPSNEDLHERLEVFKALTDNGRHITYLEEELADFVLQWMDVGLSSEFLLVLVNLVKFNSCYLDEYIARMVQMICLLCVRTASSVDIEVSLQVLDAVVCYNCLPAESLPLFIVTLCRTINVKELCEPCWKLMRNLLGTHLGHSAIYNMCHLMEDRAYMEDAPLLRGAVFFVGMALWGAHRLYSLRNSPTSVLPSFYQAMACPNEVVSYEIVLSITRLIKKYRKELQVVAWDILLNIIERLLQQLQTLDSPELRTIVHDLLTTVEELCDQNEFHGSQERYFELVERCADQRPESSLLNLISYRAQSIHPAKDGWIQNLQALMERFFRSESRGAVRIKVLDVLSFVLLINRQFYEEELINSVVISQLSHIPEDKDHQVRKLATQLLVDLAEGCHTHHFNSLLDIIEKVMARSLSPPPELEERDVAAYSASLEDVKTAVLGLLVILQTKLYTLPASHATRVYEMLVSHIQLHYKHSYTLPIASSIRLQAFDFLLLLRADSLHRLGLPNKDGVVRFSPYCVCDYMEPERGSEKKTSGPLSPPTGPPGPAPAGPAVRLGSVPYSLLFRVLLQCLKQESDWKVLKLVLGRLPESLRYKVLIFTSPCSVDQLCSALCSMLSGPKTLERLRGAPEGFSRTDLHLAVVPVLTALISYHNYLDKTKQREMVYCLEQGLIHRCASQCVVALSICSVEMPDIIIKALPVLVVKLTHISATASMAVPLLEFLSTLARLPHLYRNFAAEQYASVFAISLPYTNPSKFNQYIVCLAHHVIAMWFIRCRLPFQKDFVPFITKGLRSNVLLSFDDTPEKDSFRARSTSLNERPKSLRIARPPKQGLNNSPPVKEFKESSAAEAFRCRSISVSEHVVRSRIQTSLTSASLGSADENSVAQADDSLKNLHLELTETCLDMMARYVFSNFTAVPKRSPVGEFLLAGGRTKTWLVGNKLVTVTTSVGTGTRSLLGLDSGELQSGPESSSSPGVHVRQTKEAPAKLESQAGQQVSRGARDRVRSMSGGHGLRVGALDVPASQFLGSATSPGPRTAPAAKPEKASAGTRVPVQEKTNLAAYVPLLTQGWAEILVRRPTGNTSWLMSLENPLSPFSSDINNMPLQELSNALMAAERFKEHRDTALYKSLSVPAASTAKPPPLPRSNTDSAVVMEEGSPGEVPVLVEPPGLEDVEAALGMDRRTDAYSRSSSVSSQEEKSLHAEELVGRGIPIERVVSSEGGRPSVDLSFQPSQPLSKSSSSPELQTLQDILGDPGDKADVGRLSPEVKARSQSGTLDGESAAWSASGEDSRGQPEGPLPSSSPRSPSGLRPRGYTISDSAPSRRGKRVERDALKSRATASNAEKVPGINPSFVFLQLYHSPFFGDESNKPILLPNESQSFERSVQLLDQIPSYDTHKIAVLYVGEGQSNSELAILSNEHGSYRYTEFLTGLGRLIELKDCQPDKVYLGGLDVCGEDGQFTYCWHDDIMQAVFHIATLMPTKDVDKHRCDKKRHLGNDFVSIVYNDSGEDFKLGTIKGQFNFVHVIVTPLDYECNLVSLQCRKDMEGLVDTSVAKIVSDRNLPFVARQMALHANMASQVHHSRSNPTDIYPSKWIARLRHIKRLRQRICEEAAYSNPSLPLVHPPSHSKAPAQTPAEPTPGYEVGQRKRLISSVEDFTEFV

What was measured:
Experiment in all cases: co-IP; HEK 293T cells transfected with tagged constructs, with or without co-expressed TSC1; lysis in 50 mM HEPES pH 7.5, 10% glycerol, 1 mM DTT, 100 mM NaCl, 0.1% Triton X100; anti-V5 or anti-myc affinity beads, or anti-Xpress / anti-TSC2 with Protein A/G beads, 4°C; immunoblot
[1] = target: V5-tagged full-length TSC2 (UniProt P49815)
[2] = target: T1, TSC1 tagged with a C-terminal V5 epitope (UniProt Q92574)
T1 sequence: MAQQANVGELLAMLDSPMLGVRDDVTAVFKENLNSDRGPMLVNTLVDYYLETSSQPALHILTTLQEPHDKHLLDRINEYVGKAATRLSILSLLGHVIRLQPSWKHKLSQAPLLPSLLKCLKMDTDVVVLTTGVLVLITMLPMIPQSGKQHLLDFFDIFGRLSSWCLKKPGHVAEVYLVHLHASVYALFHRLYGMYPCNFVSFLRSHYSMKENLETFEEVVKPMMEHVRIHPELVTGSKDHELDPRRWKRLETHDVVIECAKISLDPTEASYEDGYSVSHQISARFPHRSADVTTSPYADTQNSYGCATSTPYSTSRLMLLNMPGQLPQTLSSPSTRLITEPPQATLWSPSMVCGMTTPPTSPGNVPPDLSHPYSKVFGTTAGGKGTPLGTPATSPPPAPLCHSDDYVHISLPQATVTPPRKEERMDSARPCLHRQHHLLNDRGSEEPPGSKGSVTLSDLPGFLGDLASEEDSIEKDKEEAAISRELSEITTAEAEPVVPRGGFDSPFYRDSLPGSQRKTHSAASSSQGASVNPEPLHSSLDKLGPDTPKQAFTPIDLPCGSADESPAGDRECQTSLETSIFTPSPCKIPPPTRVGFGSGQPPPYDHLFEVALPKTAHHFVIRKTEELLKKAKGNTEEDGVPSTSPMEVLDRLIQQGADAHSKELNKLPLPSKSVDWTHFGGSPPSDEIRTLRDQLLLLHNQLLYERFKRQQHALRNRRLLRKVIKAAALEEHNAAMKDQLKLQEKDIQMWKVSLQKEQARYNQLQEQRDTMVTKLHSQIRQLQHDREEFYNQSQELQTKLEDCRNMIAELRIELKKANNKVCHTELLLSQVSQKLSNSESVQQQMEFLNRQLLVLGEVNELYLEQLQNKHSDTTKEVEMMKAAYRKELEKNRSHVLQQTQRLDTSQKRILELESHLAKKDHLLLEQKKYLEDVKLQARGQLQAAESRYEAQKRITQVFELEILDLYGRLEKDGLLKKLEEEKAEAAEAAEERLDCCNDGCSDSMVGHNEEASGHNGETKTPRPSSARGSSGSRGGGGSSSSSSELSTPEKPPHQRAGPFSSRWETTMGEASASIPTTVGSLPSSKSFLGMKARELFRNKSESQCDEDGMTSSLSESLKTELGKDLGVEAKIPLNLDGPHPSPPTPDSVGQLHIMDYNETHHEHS

[3] = target: TSC2 F904V5 (TSC2 amino acids 1-904) (UniProt P49815)
[4] = target: TSC2 M1028V5 (TSC2 amino acids 1028-1784) (UniProt P49815)
[5] = target: TSC2 A1153V5 (TSC2 amino acids 1-1153) (UniProt P49815)
[6] = target: TSC2 A614V5 (TSC2 amino acids 1-614) (UniProt P49815)
[7] = target: TSC2 M1453V5 (TSC2 amino acids 1453-1784) (UniProt P49815)
[8] = target: T2, TSC1 tagged with a C-terminal myc epitope (UniProt Q92574)
T2 sequence: T1 sequence

[9] = target: N-terminal Xpress epitope tagged TSC2 (UniProt P49815)
[10] = target: TSC2, untagged, full-length (transfected) (UniProt P49815)

- binding [1]: binds
Substance: GFPTSC2 containing the R905Q pathogenic substitution (from UniProt P49815-4 1-1784)

- binding [1]: binds
Substance: GFPTSC2 containing the R611Q pathogenic substitution (from UniProt P49815-4 1-1784)

- binding [2]: binds
- binding [3]: binds
- binding [4]: binds
- binding [5]: binds
- binding [6]: binds
- binding [7]: binds
- binding [8]: binds
Substance: TSC2, untagged, full-length (transfected) (from UniProt P49815-4 1-1784)

- binding [1]: binds
Substance: GFPTSC2 containing the N1620S pathogenic substitution (from UniProt P49815-4 1-1784)

- binding [1]: binds
Substance: GFP-tagged TSC2 (from UniProt P49815-4 1-1784)

- binding [9]: binds
Substance: V5-tagged full-length TSC2 (from UniProt P49815-4 1-1784)

- binding [10]: binds
- binding [4]: binds
- binding [7]: binds
Substance: TSC2 A1153V5 (TSC2 amino acids 1-1153) (from UniProt P49815-4 1-1153) (domain or fragment)
